About 710 (0.99%) of roughly 72,000 compounds were called active. Inconclusive means that the source gave no clear call. Such entries were picked first, then a sample of the others. Calls follow the shape of the dose curve; as a rule, active = well fitted inhibition curve with a large enough effect; inconclusive = small, poorly fitted or top-dose-only effect; inactive = no such curve, though single readings can be large or run the other way. Potencies of inconclusive entries are doubtful fits and often do not repeat.
Assay: qHTS Assay for Inhibitors of the ERK Signaling Pathway using a Homogeneous Screening Assay; also: nearly all actives have a fitted effect of over 55% in size
Settings: HEK293-V1b, vasopressin-stimulated pERK AlphaScreen; activity, negative = inhibition: at 57.5 µM (top of the series) unless noted
In short: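 qHTS, compounds titrated on V1b-expressing HEK293 cells. Preincubation 30 min at 37C, vasopressin 25 nM for 5 min, lysis 10 min, bead incubation 5 hr at room temperature.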
% is scaled to controls: 0 for no effect and ±100 for the full control effect; potency is read from the fitted curve at half-maximal effect; tags tell the direction and shape of the fitted curve.

Potency, inactive:
Oc1cc2c(cc1O)[C@H](c1ccccc1)CNCC2

Potency, active:
N#CCCCSc1nnc(CSc2nc3ccccc3s2)n1-c1ccccc1 25.1 µM
COc1ccccc1CC(Cc1nc2ccccc2[nH]1)c1nc2ccccc2[nH]1 (stereo unspecified) 31.6 µM

Potency, inconclusive:
O=C(Nc1cc(Cl)ccc1O)c1cc2n(n1)C(C(F)(F)F)CC(c1ccc3c(c1)OCO3)N2 (stereo unspecified) 39.8 µM [inhibitor, single point]
Cc1cc(C)c2cc(CN(Cc3ccco3)C(=O)NCc3ccccc3)c(=O)[nH]c2c1 5.01 µM [inhibitor, partial curve]
Cc1cc(C(=O)OCC(=O)N2CCN(c3ccccc3)CC2)c2ccccc2n1 39.8 µM [inhibitor, single point]
Cc1cc(C)n(CCc2nc(-c3cc4ccccc4o3)cs2)n1 3.16 µM [inhibitor, partial curve]
CCOc1ccc(-c2cc(CCCC(=O)N3CCN(c4ccc(OC)cc4)CC3)no2)cc1 20 µM [inhibitor, partial curve]
O=S(=O)(c1cccc2nsnc12)N1CCc2ccccc2C1 12.6 µM [inhibitor, single point]
CCN(CC(=O)Nc1ccc2c(c1)OCCO2)c1nc(-c2cccnc2)nc2ccccc12 0.126 µM [inhibitor, full curve, poor fit]
O=C(Nc1cccc2c1CCCC2)C1CCCN(S(=O)(=O)c2cccc3nonc23)C1 (stereo unspecified) 3.98 µM [inhibitor, full curve, poor fit]
CCOc1cc(-c2noc(CCC(=O)Nc3cccnc3)n2)ccc1OC 15.8 µM [inhibitor, partial curve]
Cc1ccc(C(=O)CCNc2cccc(Br)c2)o1 39.8 µM [inhibitor, single point]
O=C(NC1CCN(Cc2ccccc2)CC1)C1COc2ccccc2O1 (stereo unspecified) 31.6 µM [inhibitor, single point]
COc1ccc(C2CC(=O)c3cnc(NC(=O)c4ccccc4)nc3C2)cc1OC (stereo unspecified) 31.6 µM [inhibitor, single point]
Cc1ccc(C)c(N2CCN(C(=O)CN(C)S(=O)(=O)c3ccc4c(c3)CCC(=O)N4)CC2)c1 25.1 µM [inhibitor, single point]
COc1ccc(-c2nc(CS(=O)CC(=O)NCCC3=CCCCC3)c(C)o2)cc1 (stereo unspecified) 2.51 µM [inhibitor, partial curve]
COc1cc(OC)c(C2N(c3ccc(Cl)cc3)C(=O)C3CCCN32)cc1OC (stereo unspecified) 3.98 µM [inhibitor, single point]
O=C1CC(c2ccc(O)c(O)c2)Oc2cc(O)cc(O)c21 (stereo unspecified) 0.0079 µM [inhibitor, full curve, poor fit]
COc1cccc(Cn2c(=O)cnc3cnc(Nc4ccccc4)nc32)c1 15.8 µM [inhibitor, partial curve]
COc1cccc(-c2ccc3ncnc(N(C)Cc4ccco4)c3c2)c1 25.1 µM [inhibitor, single point]
CC(C)OCCCNc1ncnc2c1[nH]c1ccccc12 31.6 µM [inhibitor, single point]
COc1ccccc1NS(=O)(=O)c1ccc2oc(SC3CCOC3=O)nc2c1 (stereo unspecified) 31.6 µM [inhibitor, single point]
Cn1c(CSCc2ccccc2Cl)nnc1SCC(=O)Nc1nccs1 25.1 µM [inhibitor, single point]
Cc1cccc(N(CC(=O)NCc2ccc3c(c2)OCO3)C(=O)CCC(=O)Nc2ccccn2)c1 7.94 µM [inhibitor, partial curve, poor fit]
O=C(Nc1nccs1)c1ccc(Cl)c(S(=O)(=O)N2CCCCC2)c1 31.6 µM [inhibitor, single point]
COc1ccc2[nH]c(=O)c(CN(Cc3ccc(C)cc3)Cc3nnnn3CC3CCCO3)cc2c1 (stereo unspecified) 1 µM [inhibitor, full curve]
O=C(c1cc(-c2cccc(O)c2)on1)N1CCCCC1 12.6 µM [inhibitor, partial curve]
CC(C)(C)c1cc(CN2CCCC(O)C2)c(O)c(C(C)(C)C)c1 (stereo unspecified) 25.1 µM [inhibitor, partial curve]
COC(=O)COc1ccc(S(=O)(=O)Nc2cc(OC)ccc2OC)cc1 12.6 µM [inhibitor, partial curve]
CC1=C(C(=O)Nc2ccccc2)C(c2cccs2)C(C#N)=C(SCC#N)N1 (stereo unspecified) 25.1 µM [inhibitor, single point]

activity, negative = inhibition, inconclusive:
Nc1nc(-c2ccco2)c(-c2ccco2)s1 -45.4% [inhibitor]
FC(F)(F)c1ccccc1-c1nc(N2CCNCC2)c2ccccc2n1 -33.5% [inhibitor]

activity, negative = inhibition, inactive:
Nc1nnc(SCC(=O)NCc2ccc3c(c2)OCO3)s1 -27.7%
O=C1CCCCCC1C1(O)C(=O)Nc2ccccc21 (stereo unspecified) -23.5%
CCCCn1c(CN2C(=O)c3ccccc3C2=O)nc2ccccc2c1=O -20.2%
O=C(Nc1ccccc1)Nc1ccccc1 0.879%
C/C(N)=C(/C#N)C(=O)CSc1nnc(COc2ccccc2Cl)o1 -2.45%
COc1ccc(CNc2nc(-c3ccc4c(c3)OCO4)nc3ccccc23)c(OC)c1 -9.53%
CC(=O)N[C@@H]1C(O)OC(CO)C(O)C1O (stereo partly specified) -14.2%
CN(C)c1nc(N)nc(-c2cccnc2)n1 -15.8%
C[C@@H]1C=C[C@](Cc2ccccc2)(C(=O)NCCCNc2ncc(C(F)(F)F)cc2Cl)N1C(=O)c1ccccc1 -8.36%
Nc1nc(CSc2nc3ccccc3s2)nc(N2CCCCC2)n1 -1.46%
CN(C)Cc1c(O)ccc2occ(C(=O)c3ccccc3)c12 -21.1%
Cc1cc(NC(=O)C(C)C)ncc1NC(=O)c1cccc(F)c1 -18.5%
COC(=O)NC(/C(C(=O)OC)=C(\C)NCc1ccccc1)c1ccco1 (stereo unspecified) 2.39% [at 11.5 µM]

Source: PubChem BioAssay AID995 (National Center for Advancing Translational Sciences (NCATS), 2007)
